Laboratory results from PubChem BioAssay AID1346378 (National Center for Advancing Translational Sciences (NCATS), 2018).
Several values for one entry are separate records, joined by “and”; a condition that tells them apart may be missing. Identical values can stand only once. Among all 420,000 compounds or so, about 540 (0.13%) were called active. The inconclusive results got no clear call from the source; some entries with a clear call stand among them for comparison. Rule as the data show it: active = activity change below about -50%; inconclusive = mostly about -30% to -49%; inactive = weaker than that.

Biological target: Phosphatidylinositol 4-kinase type 2-alpha (Homo sapiens) (UniProt Q9BTU6)
Assay: qHTS for small molecular inhibitors of PI4K2A;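 also: -100% = wells without enzyme as full effect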
Details: purified PI4K2A, ADP-Glo luminescence, 1 h; at 76.9 µM, active compounds read low
Outline: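 ADP-Glo luminescence measured ADP generated by PI4K2A enzyme (4 ug/mL before mixing) with 1.2 mM PI substrate (pre-mix) and 300 microM ATP (pre-mix). Tris pH7.5 buffer with MgCl2, Triton X-100; 1 h reaction at ambient temperature.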

Chain of UniProt Q9BTU6 (Q9BTU6 whole entry, looked up): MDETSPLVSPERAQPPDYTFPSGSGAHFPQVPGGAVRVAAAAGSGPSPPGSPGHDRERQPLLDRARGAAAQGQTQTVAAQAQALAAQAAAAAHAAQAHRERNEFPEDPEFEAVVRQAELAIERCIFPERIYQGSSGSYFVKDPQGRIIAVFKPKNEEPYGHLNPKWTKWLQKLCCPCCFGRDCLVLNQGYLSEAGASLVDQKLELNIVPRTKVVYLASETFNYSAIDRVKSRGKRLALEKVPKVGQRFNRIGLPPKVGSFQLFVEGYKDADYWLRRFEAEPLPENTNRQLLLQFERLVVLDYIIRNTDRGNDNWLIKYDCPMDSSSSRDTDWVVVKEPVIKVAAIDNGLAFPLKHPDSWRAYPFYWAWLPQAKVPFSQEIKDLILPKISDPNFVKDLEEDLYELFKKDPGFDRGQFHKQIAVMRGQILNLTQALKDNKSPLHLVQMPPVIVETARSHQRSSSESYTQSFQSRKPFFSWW

Activity change, negative = inhibition, inactive:
CC/C(=N\NC(=O)c1nnn(-c2nonc2N)c1CN(C)c1ccccc1)c1ccccc1 -6.77%, CCC(C)[C@@H](NC(=O)OC(C)(C)C)c1nnc(S(=O)(=O)Cc2cccc(C)c2)o1 (some centres not stated) 45%, O=c1c2c3c(sc2n(Cc2cc(=O)n4ccccc4n2)c(=O)n1-c1ccc(Cl)cc1)CCC3 0.419%, CC(C)CNC(=O)c1cccc(NC(=O)C(C)Oc2ccccc2)c1 (configuration not stated) 0.388%, CCCCCCn1nc(C(=O)N(CC(C)C)c2c(N)n(CCCC)c(=O)[nH]c2=O)c2ccccc2c1=O 0.638%, CC(C)Cn1c(=O)c(C(=O)NCc2ccccn2)c(O)c2ccccc21 -5.04%, CC(=O)Nc1ccc(N2CCCCC2)c(C(=O)Nc2cccc(C)c2)c1 -2.76%, CC(C)n1ncc2c(C(=O)O)cc(C3CC3)nc21 -3.32%, NC(N)=NS(=O)(=O)c1ccc(NC(=S)NC(=O)Cc2ccc(Cl)cc2)cc1 0.686%, O=C(Nc1ccc(OC(F)(F)F)cc1)C1CCN(S(=O)(=O)c2cccs2)CC1 -2.31%, Cc1ccc(C)c(NC(=O)c2ccc(CS(=O)(=O)Cc3ccccc3C)o2)c1 -4.52%, CCn1c(=O)n2n(c1=O)[C@]1(C=C(C)C2)CN(Cc2ccc(OC)cc2OC)C(NC(=O)c2ccccc2)=N1 -3.51%, CCC(=O)Nc1ccc(/C(C)=N/NC(=O)c2c(-c3ccccc3Cl)noc2C)cc1 6.46%, O=C(Nc1ccc2ccccc2c1)N1CCCN(CCOc2ccccc2)CC1 3.81%, O=C(CSc1nnc(CNC(=O)c2c(F)cccc2F)o1)NCc1ccc2c(c1)OCO2 -6.89%, Cc1ccc(NC(=O)CCC(=O)N/N=C/c2ccc([N+](=O)[O-])o2)cc1C 4.18%, O=C1c2ccccc2C(=O)N1S(=O)(=O)c1ccccc1 0.209%, COc1ccccc1NC(=O)CSC1=Nc2ccccc2C2=NC(CC(=O)NCc3ccccc3)C(=O)N12 (configuration not stated) -3.47%, COCCn1c(=NC(=O)CCS(=O)(=O)c2ccccc2)sc2cc(C(=O)OC)ccc21 -1.28%, COc1ccc(C(=O)NC(=S)SCC(=O)O)cc1 -19.7%, COc1cc(/C=C2\SC(=S)N(CCCCC(=O)O)C2=O)ccc1OS(=O)(=O)c1ccc(C)cc1 -1.12%, CC(CS(=O)(=O)c1ccc2c(c1)NC(=O)CS2)C(=O)N1CCN(c2cccc(Cl)c2)CC1 (configuration not stated) 1.01%, C=CCn1c(SCc2c(C)noc2C)nc2cc(C(=O)O)ccc2c1=O -3.31%, Cc1ccc(-c2ccc(C(=O)NCc3ccccc3)o2)c2ccccc12 -4.6%, CCCOc1cccc(NC(=O)c2c(-c3ccccc3Cl)noc2C)c1 -2.33%

Activity change, negative = inhibition, inconclusive:
CCOC(=O)c1c2c(n(Cc3ccccc3)c1C)C(=O)C(=O)c1ccccc1-2 -40.5%, CCOC(=O)c1ccc2c(c1)n(CC)c(C)[n+]2CC -41.7%, COc1ccc2nc(NC(=O)c3nc(S(=O)(=O)Cc4cccc(C)c4)ncc3Cl)sc2c1 -35.9%, CCOc1ccc(NC(=O)CSc2nc(NS(=O)(=O)c3ccc(C)cc3)cc(=O)[nH]2)cc1 -37.9%, COc1ccc2nc(NC(=O)c3cccc(-c4cc5ccccc5oc4=O)c3)sc2c1 -37.4%, O=C(O)CSc1cc(NS(=O)(=O)c2ccc(Br)cc2)c2ccccc2c1O -37.1%, CC(C)C(C)(C#N)NC(=O)CSc1nc2scc(-c3ccco3)c2c(=O)n1-c1ccccc1 (configuration not stated) -43.2%, COc1cc(CNc2ccc(O)cc2)cc(Br)c1OCc1ccccc1 -34.1%, O=C(/C=C/c1ccc(O)cc1)c1ccc(NC2=C(N3CCCCC3)C(=O)c3ccccc3C2=O)cc1 -40.3%, CCc1ccc(S(=O)(=O)/N=C2\C=C(Nc3cccc(C(=O)O)c3)C(=O)c3ccccc32)cc1 -38.2%, O=C1C(Nc2ccccc2)=C/C(=N/S(=O)(=O)c2cccs2)c2ccccc21 -38.3%, C=C(C)C(=O)Nc1cccc(C2=NOC3(C2)C[C@H](C(N)=O)N(C(=O)CC#N)C3)c1 (some centres not stated) -34.2%, O=C1C=C(Nc2cccc3cccnc23)c2ccccc2C1=O -46.6%, CCOc1ccc(N/C=C/C(=O)c2ccccc2)c([N+](=O)[O-])c1 -49%, CCCCOC(=O)CSC1=C(C#N)C(c2ccccc2OCC)C(C#N)C(=O)N1 (configuration not stated) -33.4%, Nc1cc(N)cc(C(=O)c2ccccc2)c1 -32.1%, Cc1ccc(-n2[nH]c(C)c(C=Nc3cc(C)ccn3)c2=O)cc1 -30.1%, Nc1ncnc2c1ncn2[C@@H]1O[C@H](COP(=O)(O)O)[C@@H](O)[C@H]1O -35.3%, O=C(O)CC(C(=O)O)N1C(=O)/C(=C/c2ccc(-c3nc4ccccc4s3)o2)SC1=S (configuration not stated) -33.2%, S=C(NCc1ccccn1)Nc1ccc(Cl)cc1 -43.9%, CCOc1cccc2cc(-c3nnc(NCc4ccco4)s3)c(=O)oc12 -31.5%, Cc1cc(Cl)n2c(nc3cc(F)c(F)cc32)c1C#N -40.1%, O=C1c2ccccc2C(=O)c2c(NCCc3ccc(O)cc3)ccc(NCCc3ccc(O)cc3)c21 -39.4%, O=C(COc1ccccc1[N+](=O)[O-])N/N=C/C=C/c1ccco1 -35.5%, O=C(O)c1ccc(Nc2cc(Cl)c3nonc3c2[N+](=O)[O-])cc1 -43.6%, COc1ccccc1N1C(=O)CC(N2CCc3ccccc32)C1=O (configuration not stated) -32.6%, CCc1ccc(Nc2cc(=O)n(C3CCCCC3)c(=O)[nH]2)cc1 -33.2%, O=C(NN1C(=O)C2CC=C(Cl)CC2C1=O)c1ccncc1 (configuration not stated) -43.3%, O=C(NNc1cc(N2CCOCC2)nc(N2CCOCC2)n1)c1ccc([N+](=O)[O-])cc1 -48.7%, CCc1ccc(CNc2ccc(O)cc2)cc1 -35.7%, Cc1ccc(C(C2=C(O)CC(C)(C)CC2=O)C2C(=O)CC(C)(C)CC2=O)s1 (configuration not stated) -37.4%, Nc1c(C(=O)NCc2ccc3c(c2)OCO3)c2nc3ccccc3nc2n1CCCN1CCOCC1 -38.2%, Cc1cccc(C)c1OCc1cn(CC(=O)c2ccc(O)cc2)nn1 -31%, Oc1ccc(NCc2ccccc2OCc2ccccc2F)cc1 -48.6% and -47%, Cc1ccc(/C=C/C(=O)Nc2ccc([N+](=O)[O-])c(NC(=O)/C=C/c3ccc(C)o3)c2)o1 -43.9%, CC(C)(C)N1C(=O)Cc2c1nc(N)c1c(N)nc(N3CCCCC3CO)c(C#N)c21 (configuration not stated) -43.2%, CCOC(=O)c1ccc(-c2cccc(-c3cc(=O)oc4cc(OC)cc(OC)c34)c2)cc1 -43.9%, COc1cccc(-c2cn3nc(C)c(C)nc3n2)c1 -35.4%, COc1ccc(C2=NCC(CSc3nnnn3C)S2)cc1 (configuration not stated) -31.3%, Oc1ccc(N=Cc2sc3ccccc3c2Cl)cc1 -48.5%, COc1ccc(-c2[nH][nH]c(=O)c2NC(=O)c2ccc([N+](=O)[O-])cc2)cc1 -32.9%, Cc1cccc(NC2=C(NCCO)C(=O)c3ccccc3C2=O)c1 -34.2%, COc1ccc(/C=C2/C(=O)N(c3ccccc3)N=C2C)c(OC)c1 -40%, Cc1ccc(C(=O)Nc2ccc(S(=O)(=O)O)c3cc(S(=O)(=O)O)cc(S(=O)(=O)O)c23)cc1NC(=O)c1cccc(NC(=O)Nc2cccc(C(=O)Nc3cc(C(=O)Nc4ccc(S(=O)(=O)O)c5cc(S(=O)(=O)O)cc(S(=O)(=O)O)c45)ccc3C)c2)c1 -38.5%, CCN1CCN(CC(=O)Nc2cccc(C)c2)C(=O)C1=O -38.8%, CC1=NN(c2ccc(C)c(C)c2)C(=O)C1C(c1cccc(O)c1)C1C(=O)N(c2ccc(C)c(C)c2)N=C1C (configuration not stated) -48.4%

Activity change, negative = inhibition, active:
COc1ccc(-c2cn3cc(C(=O)NN)ccc3n2)cc1 -71.6%, O=C(Nc1ccccc1)Nc1ccc(C(=O)N2CCCC2)cc1 -62.3%, CN(C)C=Nc1c(Br)cc(Br)c2nonc12 -56.5%, COc1ccc(NC(=O)c2cc([N+](=O)[O-])ccc2O)cc1 -62.6%, O=c1ccc2c(-c3ccccc3S(=O)(=O)O)c3ccc(O)c(O)c3oc-2c1O -68%, Cc1ccccc1-c1nc(-c2ccccn2)no1 -50.8%, COc1ccc2nc(NC(=O)c3ccoc3C)sc2c1 -84.5%, COc1cccc(/C=N/Nc2ccc(C(=O)O)cc2)c1O -73%, Cc1ccc(-c2ccc(C(=O)Nc3ccccc3)o2)c2ccccc12 -55.3%, CN(C)c1ccc(-c2[nH][nH]c(=O)c2NC(=O)c2ccccn2)cc1 -63.6%, O=C1/C(=C\c2ccc([N+](=O)[O-])cc2)CS(=O)(=O)C/C1=C/c1ccc([N+](=O)[O-])cc1 -53%
